Structures can show the parent of a compound that is named as a salt.
Tested on: Haemophilus influenzae
Test: Gyrase MIC against Gram negatives, microdilution broth method (Protocol 2)
Assay type: cell-based
Conditions: ATCC51907, Haemophilus influenzae (Rd1 KW20) ATCC 51907

Compound	MIC
CCNC(=O)Nc1nc2cc(-c3cnc(C(C)(C)O)nc3)c(F)c([C@H]3CCCO3)c2[nH]1 [Compound 23A, methanesulfonic acid salt of 1-ethyl-3-[6-fluoro-5-[2-(1-hydroxy-1-methyl-ethyl)pyrimidin-5-yl]-7-[(2R)-tetrahydrofuran-2-yl]-1H-benzimidazol-2-yl]urea]	1.3 µg/mL
CCNC(=O)Nc1nc2cc(-c3cnc(C(C)(C)O)nc3)cc([C@H]3CCCO3)c2[nH]1 [Compound 13, methanesulfonic acid salt of 1-ethyl-3-[5-[2-(1-hydroxy-1-methyl-ethyl)pyrimidin-5-yl]-7-[(2R)-tetrahydrofuran-2-yl]-1H-benzimidazol-2-yl]urea]	2.5 µg/mL
